According to PubChem BioAssay AID504332 (National Center for Advancing Translational Sciences (NCATS), 2011):
About 31,000 (8.9%) of roughly 350,000 compounds were called active. The shares of active, inactive and inconclusive entries below differ from those in the screen. Calls come from the whole dose curve; as a rule, active = well fitted inhibition curve with a large enough effect; inconclusive = small, poorly fitted or top-dose-only effect; inactive = no such curve, though single readings can be large or run the other way. A potency beside an inconclusive call is a rough fit, not a confirmed value.

Target: Histone-lysine N-methyltransferase EHMT2 (Homo sapiens) (UniProt Q96KQ7)
Chain of UniProt Q96KQ7 (Q96KQ7 whole entry, looked up): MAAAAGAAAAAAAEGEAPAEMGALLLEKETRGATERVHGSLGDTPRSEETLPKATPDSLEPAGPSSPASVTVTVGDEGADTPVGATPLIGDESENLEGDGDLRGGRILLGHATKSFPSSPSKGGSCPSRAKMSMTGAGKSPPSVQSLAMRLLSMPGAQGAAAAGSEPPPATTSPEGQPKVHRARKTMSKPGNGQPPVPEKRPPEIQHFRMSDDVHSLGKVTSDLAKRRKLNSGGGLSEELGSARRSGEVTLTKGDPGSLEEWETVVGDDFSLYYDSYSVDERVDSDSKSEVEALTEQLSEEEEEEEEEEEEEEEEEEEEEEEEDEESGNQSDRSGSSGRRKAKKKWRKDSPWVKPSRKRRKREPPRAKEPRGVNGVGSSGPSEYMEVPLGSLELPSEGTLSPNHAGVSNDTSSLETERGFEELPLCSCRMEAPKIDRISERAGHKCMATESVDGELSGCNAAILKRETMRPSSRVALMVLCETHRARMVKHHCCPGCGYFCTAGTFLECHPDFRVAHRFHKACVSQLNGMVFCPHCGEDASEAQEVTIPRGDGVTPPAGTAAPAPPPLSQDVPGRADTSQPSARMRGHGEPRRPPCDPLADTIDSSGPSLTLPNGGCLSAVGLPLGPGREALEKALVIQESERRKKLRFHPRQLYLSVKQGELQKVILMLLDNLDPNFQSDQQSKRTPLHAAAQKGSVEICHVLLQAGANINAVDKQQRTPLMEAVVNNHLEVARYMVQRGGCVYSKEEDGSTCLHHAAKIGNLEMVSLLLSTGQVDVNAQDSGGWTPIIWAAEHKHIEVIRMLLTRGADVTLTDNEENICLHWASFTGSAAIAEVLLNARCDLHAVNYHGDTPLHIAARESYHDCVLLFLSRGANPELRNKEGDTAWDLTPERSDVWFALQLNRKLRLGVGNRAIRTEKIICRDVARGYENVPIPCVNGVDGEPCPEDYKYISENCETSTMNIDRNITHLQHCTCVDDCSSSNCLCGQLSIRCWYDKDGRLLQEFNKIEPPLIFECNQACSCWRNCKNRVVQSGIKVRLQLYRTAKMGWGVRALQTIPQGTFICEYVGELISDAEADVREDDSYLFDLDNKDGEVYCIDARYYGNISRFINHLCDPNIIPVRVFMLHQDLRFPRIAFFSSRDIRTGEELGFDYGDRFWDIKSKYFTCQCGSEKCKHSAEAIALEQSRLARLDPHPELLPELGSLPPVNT
Assay: qHTS Assay for Inhibitors of Histone Lysine Methyltransferase G9a; note: nearly all actives have a fitted effect of over 75% in size
Conditions: G9a H3K9 monomethylation, AlphaScreen, 2 h; activity, negative = inhibition: at 59 µM (top of the series) unless noted
Method in brief: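 Using a bead-based AlphaScreen, monomethylated H3K9 product from 2 h room-temperature reactions (G9a 20 nM, peptide 500 nM, SAM 20 uM) was detected with 0.5 ug/mL rabbit anti-H3K9me1 antibody.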
% is set by controls: 0 for no effect and ±100 for the full control effect; potency is the fitted concentration of half-maximal effect; tags give direction and shape of the fitted curve.

| Structure (SMILES) | Potency | activity, negative = inhibition |
| --- | --- | --- |
| COc1ccc(CCNC(=O)CSc2cc(=O)n(C)c3ccccc23)cc1OC | inconclusive: 3.98 µM [inhibitor, single point] |  |
| COc1ccc(C(=O)NCC(c2ccco2)N2CCc3ccccc3C2)cc1 (stereo not given) | inconclusive: 79.4 µM [inhibitor, single point] |  |
| COc1ccc(-n2c(SCC(=O)Nc3ccccc3)nc3c(c2=O)SCC3)cc1 | inconclusive: 89.1 µM [inhibitor, single point] |  |
| Cc1ccc2sc(N(CCCN(C)C)C(=O)c3ccco3)nc2c1C | inconclusive: 31.6 µM [inhibitor, partial curve, poor fit] |  |
| CCOC(=O)c1c(NC(=O)COC(=O)/C=C/c2ccco2)sc2c1CC(C)(C)NC2(C)C | active: 15.8 µM |  |
| Cc1ccccc1NC(C)C(=O)N/N=C/c1ccccc1OCc1cccc(Br)c1 (stereo not given) |  | inactive: -45.3% |
| COc1cc(OC)c(NC(=O)CCc2nc(-c3cccs3)no2)cc1Cl | inconclusive: 79.4 µM [inhibitor, single point] |  |
| CCc1ccccc1NC(=O)c1cc(-c2ccc(OC)cc2)on1 | inactive |  |
| C=CCn1cc(/C=N/NC(=O)COc2cccc3cccnc23)c2ccccc21 | inconclusive: 28.2 µM [inhibitor, single point] |  |
| CC(=O)NC(NC(=S)Nc1cccc(Br)c1)C(Cl)(Cl)Cl (stereo not given) | inconclusive: 10 µM [inhibitor, partial curve, poor fit] |  |
| Cc1ccc(C)c(S(=O)(=O)N2CCCN(C)CC2)c1 | inconclusive: 56.2 µM [inhibitor, single point] |  |
| COc1ccc(S(=O)(=O)N2CCOCC2)cc1NC(=O)COc1ccc(C(C)=O)cc1OC | inconclusive: 79.4 µM [inhibitor, single point] |  |
| CCCNC(=O)C1CCC(Cn2c(=O)c3sccc3n(CC(=O)N(CC)CC)c2=O)CC1 (stereo not given) |  | inactive: 16.1% |
| COc1ccc(N2C(=O)CC(NC34CC5CC(CC(C5)C3)C4)C2=O)c(OC)c1 (stereo not given) | inconclusive: 22.4 µM [inhibitor, partial curve, poor fit] |  |
| Cn1c(=O)c2[nH]c(NCC3CCCO3)nc2n(-c2ccccc2)c1=O (stereo not given) | active: 8.91 µM |  |
| CC1CCc2c(sc(NC(=O)/C=C/c3cccs3)c2C(=O)O)C1 (stereo not given) | inconclusive: 79.4 µM [inhibitor, single point] |  |
| CCOc1cc(N2CCOCC2)c(OCC)cc1NC(=O)COC(=O)[C@@H]1CCCN1S(=O)(=O)c1ccccc1F | active: 44.7 µM |  |
| Cc1ccc(-c2nnc(N)s2)cc1 |  | inactive: 10.2% [at 102 µM] |
| CC(=O)c1c[nH]c(C(=O)NCc2cccc(C(F)(F)F)c2)c1 |  | inactive: -8.9% [at 102 µM] |
| CC(C)CNC(=O)CC1Nc2ccccc2NC1=O (stereo not given) |  | inconclusive: -85.3% [inhibitor] |
| C[N+](C)(C)CCCCCCC(=O)/C=N/O | inconclusive: 35.5 µM [inhibitor, single point] |  |
| CC1=C(C(=O)Nc2ccccc2C)C(c2ccccc2)NC(=O)N1 (stereo not given) | inconclusive: 3.98 µM [inhibitor, partial curve, poor fit] |  |
| Cc1ccc(CNC(=O)c2cc3cc(C)ccc3n2C)cc1 | inconclusive: 6.31 µM [inhibitor, partial curve, poor fit] |  |
| CCOC(=O)c1ccccc1NC(=S)N1CC(C)CC(C)C1 (stereo not given) |  | inactive: 5.31% [at 102 µM] |

| Structure (SMILES) | Potency | activity, negative = inhibition |
| --- | --- | --- |
| COc1cccc(C(=O)Nc2nc3c(s2)CCCC3)c1 | active: 10 µM |  |
| O=C(O)CN1C(=O)NC2(CCOc3ccccc32)C1=O (stereo not given) | inconclusive: 56.2 µM [inhibitor, partial curve, poor fit] |  |
| COc1ccc(CN2C(=O)N(c3cccc(C)c3)C(=O)C2CC(=O)Nc2ccc(F)cc2)cc1OC (stereo not given) |  | inactive: 1.92% |
| O=C(O)c1cccc(NC(=S)NCc2ccccc2)c1 |  | inactive: -27.4% [at 102 µM] |
| CNC(=O)CSc1nnc(-c2cccc(S(=O)(=O)N3CCOCC3)c2)n1-c1ccc(F)cc1 | inconclusive: 89.1 µM [inhibitor, partial curve, poor fit] |  |
| CCOc1ccccc1NC(=O)C(NC(=O)C1CCC(C)CC1)C(C)C (stereo not given) | inconclusive: 31.6 µM [inhibitor, partial curve, poor fit] |  |
| Cn1ccnc1Sc1ccccc1[N+](=O)[O-] | inconclusive: 44.7 µM [inhibitor, partial curve, poor fit] |  |
| O=C(NC(Cc1ccccc1)C(=O)O)c1cccnc1Cl (stereo not given) |  | inactive: -6.38% [at 102 µM] |
| CC(NC(=O)c1ccco1)C(=O)N1CCN(c2cccc(C(F)(F)F)c2)CC1 (stereo not given) |  | inactive: -121% [at 12.7 µM] |
| COc1ccc2c(C)cc(SCC(=O)c3ccc4c(c3)OCO4)nc2c1 |  | inactive: -48.8% [at 102 µM] |
| CCOC(=O)c1cc(NC(=O)c2ccc(C)cc2)c(=O)n2c1oc1ccccc12 |  | inactive: -23.8% |
| CCCc1cc(=O)n2[nH]c(C)nc2n1 |  | inactive: -40.3% [at 12.7 µM] |
| c1ccc(OCc2nnc3sc(-c4cccs4)nn23)cc1 | inconclusive: 0.631 µM [inhibitor, partial curve, poor fit] |  |
| CCOc1cc(CNCCSc2nnnn2C)ccc1OCc1ccc(Cl)cc1Cl | inconclusive: 31.6 µM [inhibitor, partial curve, poor fit] |  |
| CCc1ccc(S(=O)(=O)NCc2cn3c(C)csc3n2)s1 | inconclusive: 28.2 µM [inhibitor, partial curve, poor fit] |  |
| CCOC(=O)c1nc2nc(C)c(Cl)c(=O)n2[nH]1 | inconclusive: 79.4 µM [inhibitor, single point] |  |
| CN(Cc1c(F)cccc1Cl)C(=O)c1ccc(NS(=O)(=O)c2ccc3[nH]c(=O)[nH]c3c2)cc1 | inconclusive: 89.1 µM [inhibitor, single point] |  |
| COc1ccc(C(=S)N2CCOCC2)cc1OS(=O)(=O)c1ccc(Br)cc1 | active: 44.7 µM |  |
| CCOc1ccc(C2c3[nH]c4ccccc4c3CCN2C(=O)CSc2ccccc2)cc1 (stereo not given) |  | inactive: -0.762% |
| O=S(=O)(c1ccccc1F)N(Cc1ccco1)Cc1nnc(-c2ccccc2Br)o1 | active: 79.4 µM |  |
| CCc1c(CN2CCN(c3ccc(F)cc3)CC2)csc1C | inconclusive: 3.55 µM [inhibitor, partial curve, poor fit] |  |
| Cn1cccc1Cc1nnc(SCC(=O)Nc2cccc(Cl)c2)n1-c1ccc(F)cc1 | active: 44.7 µM |  |
| COc1ccc(-c2nn(-c3ccccc3)cc2/C=C/C(=O)N2CCN(c3ccccn3)CC2)cc1 | inconclusive: 25.1 µM [inhibitor, partial curve, poor fit] |  |
| O=C(Nc1ccccc1F)c1ccc(O)c2ncccc12 |  | inactive: 2.3% [at 12.7 µM] |

| Structure (SMILES) | Potency | activity, negative = inhibition |
| --- | --- | --- |
| CCc1ccc(NC(=O)CSc2nnc(Cc3cccn3C)n2-c2ccc(F)cc2)cc1 | inconclusive: 39.8 µM [inhibitor, partial curve, poor fit] |  |
| COc1ccc(N(CC(=O)Nc2cc(OC)c(OC)cc2C(=O)O)S(=O)(=O)c2c(C)noc2C)cc1 |  | inactive: 15.5% [at 102 µM] |
| Cc1c(Br)c([N+](=O)[O-])nn1CC(=O)NCc1cccnc1 |  | inactive: -2.03% [at 102 µM] |
| CCc1ccc(NC(=O)Cc2c(C(=O)O)n(C)c3ccccc23)cc1 | inconclusive: 25.1 µM [inhibitor, partial curve] |  |
| Cn1c(SCC(=O)Nc2cccc(F)c2)nnc1-c1cccnc1 |  | inactive: -0.347% [at 102 µM] |
| CN1CCN(c2cc(=O)n(Cc3ccc(F)cc3)c(=O)[nH]2)CC1 | inconclusive: 28.2 µM [inhibitor, single point] |  |
| CC1CCCCN1C(=O)CCC(=O)Nc1nnc(C(F)(F)F)s1 (stereo not given) |  | inactive: 19.1% [at 102 µM] |
| CCc1cc(=O)oc2c(CNCc3ccc(OC)cc3OC)c(O)c(Cl)cc12 | inconclusive: 89.1 µM [inhibitor, single point] |  |
| COc1ccc2nc(NC(=O)Cn3cnc4ccccc4c3=O)sc2c1 | inconclusive: 44.7 µM [inhibitor, partial curve, poor fit] |  |
| O=C(Cn1c2[n+](c3ccc(C(F)(F)F)cc31)CCCCC2)Nc1ccccc1 | inconclusive: 39.8 µM [inhibitor, single point] |  |
| CCn1c2ccccc2c2cc(NC(=O)CN(C)CC(=O)Nc3ccc(N4CCOCC4)cc3)ccc21 | active: 39.8 µM |  |
| CCCCN1C(=O)C(O)=C(C(C)=O)C1c1ccc(OC)cc1OC (stereo not given) | inconclusive: 56.2 µM [inhibitor, partial curve, poor fit] |  |
| Cc1nn(-c2ccc(Cl)cc2)c2[nH]c(CCl)cc(=O)c12 | inconclusive: 89.1 µM [inhibitor, single point] |  |
| CCCCCn1c(=O)[nH]c2cc(C(=O)N3CCN(c4ccc(OC)cc4)CC3)ccc2c1=O | inconclusive: 3.16 µM [inhibitor, full curve, poor fit] |  |
| CC(=O)c1cccc(NC(=O)c2nccnc2C(=O)O)c1 | inconclusive: 28.2 µM [inhibitor, single point] |  |
| COC(=O)c1ccc(-n2c(C)cc(C(=O)CSc3ccc(NC(C)=O)cc3)c2C)cc1 | inconclusive: 39.8 µM [inhibitor, single point] |  |
| CCSc1nc(N)c2c3c(sc2n1)CN(C)CC3 | active: 44.7 µM |  |
| O=C(NC(O)C(=O)c1cccs1)c1cccnc1 (stereo not given) | inconclusive: 50.1 µM [inhibitor, partial curve, poor fit] |  |
| CN(C)c1ccc(C(=O)Nc2sc(Nc3ccccc3)nc2C(N)=O)cc1 |  | inactive: -18% |
| CN(C)S(=O)(=O)c1cccc(NC(=O)COc2cccc3ccccc23)c1 | inconclusive: 44.7 µM [inhibitor, partial curve, poor fit] |  |
| O=C(Cn1c(=O)oc2cc(S(=O)(=O)N3CCCC3)ccc21)N1CCCC1 | inconclusive: 89.1 µM [inhibitor, single point] |  |
| Cc1ccccc1-n1nc(C(=O)O)c(C)c(C#N)c1=O | inconclusive: 89.1 µM [inhibitor, single point] |  |
